Source: PubChem BioAssay AID651820 (National Center for Advancing Translational Sciences (NCATS), 2012)
About 12,000 (3.5%) of roughly 340,000 compounds were called active. The shares of active, inactive and inconclusive entries below differ from those in the screen. Calls come from the whole dose curve; as a rule, active = well fitted inhibition curve with a large enough effect; inconclusive = small, poorly fitted or top-dose-only effect, or another doubt; inactive = no such curve, though single readings can be large or run the other way. Potencies of inconclusive entries are left out as doubtful fits.

Test: qHTS Assay for Inhibitors of Hepatitis C Virus (HCV)
Details: Huh7.5.1 HCVcc-Cre (HCVcc is cell-culture hepatitis C virus) infection, luciferase reporter, 44 h; activity change, negative = inhibition: at 41.8 µM (top of the series) unless noted
Outline: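 Compounds are dispensed onto cells plated 4 h earlier at 1,000 per well, with HCVcc-Cre virus (about 0.5 moi) added next. Following 44 h of culture, luminescent signal is measured for 15 sec after 15 min with substrate at room temperature.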
% is set by controls: 0 for no effect and ±100 for the full control effect; potency is the fitted concentration of half-maximal effect; tags give direction and shape of the fitted curve.

Compound | Potency | activity change, negative = inhibition
COc1ccc(NC(=O)CN(C)C(=O)/C=C/c2cn(-c3ccccc3)nc2-c2ccc(C)cc2)cc1 | inconclusive [inhibitor, single point] | 
Cc1cccnc1NC(=S)Nc1ccc(F)cc1F |  | inactive: 6.41%
O=C(c1ccco1)N1CCN(C(=O)c2cc(-c3ccncc3)nc3ccc(Br)cc23)CC1 | inconclusive [inhibitor, single point] | 
COc1ccc(S(=O)(=O)N2CCOCC2)cc1NS(=O)(=O)c1ccc(F)c(F)c1 |  | inactive: 7.04%
CCC(=O)Nc1ccc(C(=O)NCc2ccccn2)cc1 |  | inactive: -4.25%
Cc1cc(C)n(Cc2ccc(NC(=O)c3nn(C)cc3[N+](=O)[O-])cc2)n1 | inconclusive [inhibitor, single point] | 
CCn1c(SCc2ccccc2)nc2cc(OC)c(OC)cc2c1=O | inconclusive [inhibitor, partial curve] | 
O=c1c2ccccc2nc2c3ccccc3c(NCc3ccccn3)nn12 | inconclusive [inhibitor, single point] | 
COc1ccccc1N1CCN(C(=O)CN2C(=O)c3cccc4cccc(c34)C2=O)CC1 | inconclusive [inhibitor, single point] | 
c1ccc2c3c(cc(N4CCOCC4)c2c1)OC1(N2CCOCC2)CCCCC1O3 (configuration not stated) | inconclusive [inhibitor, partial curve] | 
Cc1ccc(-n2c(O)c(/C=N/N3CCCCC3c3cccnc3)c(=O)[nH]c2=S)cc1 (configuration not stated) |  | inactive: -0.412%
O=C(c1cc(Cl)c(=O)n(Cc2ccc(Cl)cc2)c1)N1CCOCC1 |  | inactive: 2.99%
COP(=O)(OC)c1nc(-c2cccc3ccccc23)oc1NCc1ccccc1 |  | inactive: 2.63%
O=C(COc1ccc(F)cc1)Nc1cc(Cl)ccc1-n1cncn1 | inconclusive [inhibitor, partial curve] | 
Cc1ccc2c(C)c(C(=O)N3CCN(C4CCS(=O)(=O)C4)CC3)oc2c1C (configuration not stated) |  | inactive: 0.383%
Cc1ccc(C2=NNC(c3ccc(Cl)cc3)=Nc3ccccc32)o1 | inconclusive [inhibitor, single point] | 
CCN1/C(=C/C=C/c2sc3ccccc3[n+]2CC)Sc2ccccc21 | active: 1.58 µM | 
Cc1cccc(C2(c3cccc(C)c3)CC2C(=O)Nc2ccc([N+](=O)[O-])cc2O)c1 (configuration not stated) | inconclusive [inhibitor, single point] | 
Cc1nc(Nc2ccc(S(=O)(=O)N3CCCC3)cc2)c2nnn(Cc3ccccc3)c2n1 | inconclusive [inhibitor, single point] | 
COc1ccc([C@H]2/C=C\CN(S(=O)(=O)c3cccc4cccnc34)[C@@H](C)C(=O)N2Cc2ccc(F)cc2)cc1 | inconclusive [inhibitor, single point] | 
COc1cc2cc(CN(CCCN3CCOCC3)C(=O)Nc3ccccc3F)c(=O)[nH]c2cc1OC |  | inactive: 9.57%
CCCC(=O)N(Cc1cc(=O)[nH]c2ccccc12)c1ccccc1OC |  | inactive: -9.87%
COc1ccc(C(=O)O/N=C(\N)Cc2ccc(Cl)c(Cl)c2)cc1OC | active: 22.4 µM | 
O=C(O)Cc1csc(Nc2cccc(Cl)c2)n1 |  | inactive: 6.17%

Compound | Potency | activity change, negative = inhibition
Cn1c2c(c3ccccc31)CCN1CCC[C@]21c1ccccc1 | inconclusive [inhibitor, single point] | 
CCc1ccc(OCC(=O)NC(NC(=S)Nc2ccccc2C)C(Cl)(Cl)Cl)cc1 (configuration not stated) | inconclusive [inhibitor, single point] | 
COCc1cc(CNC(=O)C2CCC(=O)N(Cc3ccccc3F)C2)[nH]n1 (configuration not stated) |  | inactive: -0.342%
CC(C(N)=O)N1C(=O)NC2(CCCc3ccccc32)C1=O (configuration not stated) |  | inactive: 4.9%
Cn1c(=O)oc2cc(S(=O)(=O)NCCC(=O)NC3CCCC3)ccc21 | inconclusive [inhibitor, partial curve] | 
Cc1nc(/C=C/c2ccccc2)[nH]c(=O)c1-c1ccccc1 |  | inactive: 4.23%
Cc1ccc(S(=O)(=O)/N=C(\N)Nc2nc(C)c3ccc(C)cc3n2)cc1 | inconclusive [inhibitor, partial curve] | 
COc1ccccc1NC(=O)CC(NC1CCCCC1)C(=O)O (configuration not stated) |  | inactive: 12%
CCN1C=CC(=C2C(=O)c3ccccc3C2=O)C=C1 |  | inactive: -6.61%
COc1cc(OC)cc(C(=O)Nc2nc(CC(=O)NCc3ccc(F)cc3)cs2)c1 | inconclusive [inhibitor, full curve] | 
CC(C)C(=O)Nc1ccc(S(=O)(=O)N2CCC(c3nc4ccccc4[nH]3)CC2)cc1 | inconclusive [inhibitor, single point] | 
COc1ccc(C(=O)NC(=S)NNC(=O)c2ccc(C)cc2)cc1 | inconclusive [inhibitor, single point] | 
CCn1cc(CN2CCN(C)C(CCO)C2)c2ccccc21 (configuration not stated) |  | inactive: -8.98%
COc1ccc(C)cc1NC(=O)C(Sc1nnc(Nc2ccccc2F)s1)c1ccccc1 (configuration not stated) | inconclusive [inhibitor, single point] | 
COC(=O)c1ccccc1CON1C(=O)C(C)(C)N(OCc2ccccc2C(=O)OC)C(=O)C1(C)C | active: 14.1 µM | 
CC1CCN(c2c([N+](=O)[O-])c(=O)n(-c3ccccc3)c3ccccc23)CC1 | inconclusive [inhibitor, single point] | 
CCOc1ccc(C(=S)N2CCCC2)c(OCC)c1 |  | inactive: -25.3%
Cc1ccc(C2SCCN2C(=O)c2ccc([N+](=O)[O-])cc2)cc1 (configuration not stated) | inconclusive [inhibitor, full curve, poor fit] | 
O=C1OC(/C(=C\Nc2ccc(F)cc2F)[N+](=O)[O-])c2ccccc21 (configuration not stated) |  | inactive: 20%
Cc1ccc(-c2ccc(/C=N/NC(=S)Nc3ccccc3)o2)cc1[N+](=O)[O-] | inconclusive [inhibitor, single point] | 
Cc1c(Cl)cccc1NC(=S)N1CCN(S(=O)(=O)c2cccs2)CC1 |  | inactive: -9.51%
O=C(Nc1ccccc1O)c1csc2c1CCCC2 | inconclusive [inhibitor, single point] | 
C=CCNC(=S)Nc1nc2c(cc1C(=O)OCC)CCCC2 | inconclusive [inhibitor, single point] | 
CS(=O)(=O)N(CC(=O)N1CCN(c2ccccc2F)CC1)C1CCCCC1 |  | inactive: -0.8%

Compound | Potency | activity change, negative = inhibition
COc1cccc(Cn2nnc(C(=O)Nc3cc(C)ccc3OC)c2N)c1 | inconclusive [inhibitor, full curve] | 
O=C(CCCn1c(=S)[nH]c2ccc(Br)cc2c1=O)N1CCN(c2ccccn2)CC1 | inconclusive [inhibitor, partial curve] | 
CCC(C)c1ccc(C(C)NC(=S)NC2CCCCC2)cc1 (configuration not stated) | inconclusive [inhibitor, single point] | 
CCN(CC)CCNc1nc(-c2ccc(OC(F)F)cc2)c(C)s1 | active: 17.8 µM | 
Fc1ccccc1Cc1noc(CN2CCC(OCc3cccnc3)CC2)n1 | inconclusive [inhibitor, single point] | 
CCOc1ccccc1C(=O)NC1CC2CCCC(C1)N2Cc1nnnn1Cc1ccco1 (configuration not stated) | inconclusive [inhibitor, single point] | 
O=C(N/N=C/c1c[nH]c2ccccc12)c1cccc(Cl)c1 | inconclusive [inhibitor, single point] | 
CCOC(=O)C1Nc2ccc(C)cc2C2C=CCC12 (configuration not stated) |  | inactive: -18.2%
N#Cc1nc(-c2ccc(Cl)cc2)oc1N1CCCCC1 | inconclusive [inhibitor, full curve] | 
COC(=O)[C@]1(Cc2ccccc2)N[C@H](c2ccc(-c3cccc(Cl)c3)c(OC)c2)[C@@H]2C(=O)N(C)C(=O)[C@@H]21 | active: 2.24 µM | 
COc1ccc(COc2cc(-c3cccc(OC)c3)nc3ccc(NC(=O)C(C)C)cc23)cc1 | inconclusive [inhibitor, single point] | 
Fc1ccccc1/C=C1\CCCC2=C1NC(=S)NC2c1ccccc1F (configuration not stated) | inconclusive [inhibitor, single point] | 
C=CCNc1nnc(SCC(=O)Nc2ccccc2OC)c2ccccc12 | inconclusive [inhibitor, single point] | 
COc1ccc(-c2csc(N3CCN(c4cc(C)nc5ccccc45)CC3)n2)cc1OC | active: 2.82 µM | 
CC(NC(=O)c1ccc(Br)o1)C1CCCO1 (configuration not stated) |  | inactive: 11.7%
CC(NS(=O)(=O)c1ccc(Br)cc1)C(c1cccs1)N1CCN(C)CC1 (configuration not stated) | inconclusive [inhibitor, partial curve] | 
COCCOC(=O)C1=C(C)NC(=O)NC1c1ccc(-c2cc(Cl)ccc2Cl)o1 (configuration not stated) | inconclusive [inhibitor, single point] | 
CCCCNC(=O)NS(=O)(=O)c1ccc(NC(=O)C(NC(N)=O)C(C)CC)cc1 (configuration not stated) |  | inactive: 5.76%
O=C(Cc1c(Cl)cccc1Cl)Nc1ccncc1Cl | inconclusive [inhibitor, partial curve] | 
CCOC(=O)c1c(NC(=O)CNCCO)sc(C)c1C | inconclusive [inhibitor, single point] | 
Cc1sc2ncnc(NCc3ccco3)c2c1C | inconclusive [inhibitor, single point] | 
COc1ccc(OC)c(CNC(=O)Cn2nc(C)c3c(C)n(-c4ccc(C)cc4)nc3c2=O)c1 | active: 3.98 µM | 
COc1ccccc1-n1c(SCC(=O)Nc2cccc(C)c2)nc2c(c1=O)SCC2 | inconclusive [inhibitor, partial curve] | 
CCCCNC(=O)Nc1nnc(-c2ccc(OCC)cc2)o1 |  | inactive: -2%
